# From PubChem BioAssay AID1460 (National Center for Advancing Translational Sciences (NCATS), 2008)
# “And” between values parts separate entries of the source, which are not always exact repeats. Identical values can stand only once. In all, about 270,000 compounds went through this assay and about 5,800 (2.1%) were called active. This list was built around the results that the source calls inconclusive (neither active nor inactive); the mix of calls is not that of the screen. Calls follow the shape of the dose curve; as a rule, active = well fitted inhibition curve with a large enough effect; inconclusive = small, poorly fitted or top-dose-only effect; inactive = flat fitted curve, though single readings scatter. Potencies of inconclusive entries are doubtful fits and often do not repeat.
# Biological target: Microtubule-associated protein tau (Homo sapiens) (UniProt P10636)
# Assay: qHTS for Inhibitors of Tau Fibril Formation, Thioflavin T Binding; also: nearly all actives have a fitted effect of over 55% in size
# Settings: recombinant tau K18 P301L, heparin-induced fibrillization, ThT fluorescence; series mostly up to 57.4 µM; activity, negative = inhibition: at the top concentration
# Summary of the method: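 Using a mix of unlabeled (15 uM) and Alexa 594-labeled (0.24 uM) tau K18 P301L, heparin-triggered fibrillization over 6 hr at 37 C was scored by ThT fluorescence.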
# % is scaled to controls: 0 for no effect and ±100 for the full control effect; potency is read from the fitted curve at half-maximal effect; tags tell the direction and shape of the fitted curve.
# UniProt P10636, sequence (P10636 whole entry, looked up): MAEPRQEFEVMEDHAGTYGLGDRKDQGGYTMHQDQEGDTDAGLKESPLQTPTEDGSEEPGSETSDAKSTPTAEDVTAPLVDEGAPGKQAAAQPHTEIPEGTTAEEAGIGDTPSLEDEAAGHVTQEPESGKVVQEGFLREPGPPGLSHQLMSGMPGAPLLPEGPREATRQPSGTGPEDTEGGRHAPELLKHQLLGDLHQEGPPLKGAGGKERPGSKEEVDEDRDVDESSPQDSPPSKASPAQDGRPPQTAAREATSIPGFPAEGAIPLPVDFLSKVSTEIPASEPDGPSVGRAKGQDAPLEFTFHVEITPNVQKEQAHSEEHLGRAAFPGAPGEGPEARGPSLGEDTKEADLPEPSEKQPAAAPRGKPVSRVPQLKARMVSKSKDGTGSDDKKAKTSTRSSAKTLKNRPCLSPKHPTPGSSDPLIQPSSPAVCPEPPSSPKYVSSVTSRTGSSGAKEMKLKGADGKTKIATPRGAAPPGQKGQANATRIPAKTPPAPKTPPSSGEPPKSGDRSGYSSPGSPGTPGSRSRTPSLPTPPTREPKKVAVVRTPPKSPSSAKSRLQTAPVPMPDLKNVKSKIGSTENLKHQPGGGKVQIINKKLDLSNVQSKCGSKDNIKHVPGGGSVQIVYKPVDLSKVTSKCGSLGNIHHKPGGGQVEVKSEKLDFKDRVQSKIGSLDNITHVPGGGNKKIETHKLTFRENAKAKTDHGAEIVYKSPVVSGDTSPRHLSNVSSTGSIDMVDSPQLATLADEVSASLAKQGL
Structure (SMILES),Potency,"activity, negative = inhibition"
Cc1ccc(C(=O)C[n+]2ccc3ccccc3c2)cc1,"inconclusive: 6.31 µM [inhibitor, partial curve, poor fit]",–
C/C(=N\NC(=O)COc1ccc(C(C)(C)C)cc1)c1cc2ccccc2o1,"inconclusive: 3.98 µM [inhibitor, full curve, poor fit]",–
O=[N+]([O-])c1cc(-c2ccc(C(=S)N3CCOCC3)o2)ccc1Cl,active: 14.1 µM,–
Cc1occc1C(=O)NNC(=O)Nc1ccc([N+](=O)[O-])cc1,–,inactive: -11.7%
O=C(Nc1ccc(-c2csc(Nc3cccc(C(F)(F)F)c3)n2)cc1)c1ccccc1,"inconclusive: 7.94 µM [inhibitor, partial curve]",–
O=C(N/N=C/c1ccccn1)c1cc(-c2ccc(Br)cc2)nc2ccccc12,"inconclusive: 39.8 µM [inhibitor, single point]",–
O=C1C=CC(O)(c2cc(=O)c3c(O)cc(O)cc3o2)C=C1,active: 12.6 µM,–
Cc1ccc(N2CC(C(=O)Nc3ccc(N(C)C)cc3)CC2=O)cc1C (stereo not drawn),"inconclusive: 39.8 µM [inhibitor, single point]",–
COc1cc(/C=C(\C#N)C(=O)N2CCOCC2)cc(Br)c1O,"inconclusive: 39.8 µM [inhibitor, single point]",–
CCOC(=O)c1c(S(=O)(=O)N2CCCC(C(=O)N3CCN(c4cccc(C)c4C)CC3)C2)c(C)n(C)c1C (stereo not drawn),"inconclusive: 25.1 µM [inhibitor, single point]",–
NC1=NC(=O)/C(=C\c2ccc(O)c([N+](=O)[O-])c2)S1,"inconclusive: 14.1 µM [inhibitor, partial curve]",–
CNc1ccc(Br)cc(C(=O)/C=C/c2ccc3c(c2)OCO3)c1=O,active: 12.6 µM,–
O=c1c2ccccc2nc2ccc(NCc3ccco3)nn12,active: 17.8 µM,–
Cc1oc(C(C)(C)C)cc1C(=O)N1CCN(C(c2ccccc2)c2ccccc2)CC1,"inconclusive: 28.2 µM [inhibitor, single point]",–
O=C(CCn1c(=O)c2ccccc2n(Cc2ccc(F)cc2Cl)c1=O)NCc1ccc2c(c1)OCO2,–,inactive: 12.5%
Cc1cccc(N2CCN(C(=S)c3ccccc3)CC2)c1,"inconclusive: 14.1 µM [inhibitor, partial curve]",–
Cc1cccnc1Nc1nc(-c2ccc(O)cc2O)cs1,–,inactive: 0.423%
COc1ccc2[nH]cc(CC(N)C(=O)O)c2c1 (stereo not drawn),"inconclusive: 12.6 µM [inhibitor, partial curve, poor fit] and inconclusive: 28.2 µM [inhibitor, single point]",–
COC(=O)c1c(SC)nc2ccccc2c1OCc1ccccc1C,"inconclusive: 25.1 µM [inhibitor, single point]",–
O=C(NNC1=C(C(=O)C(F)(F)F)CCC1)c1ccccc1O,"inconclusive: 10 µM [inhibitor, partial curve]",–
Cc1cc(=O)oc2c1ccc1oc(/C(=N/O)c3ccccc3)c(C)c12,–,inactive: -15%
Cc1ccc(-n2c(C)cc(/C=N/Nc3ccc([N+](=O)[O-])cn3)c2C)c(C)c1,active: 3.98 µM,–
CC(C)NC(=O)c1nc2ccccc2s1,–,inactive: -3.58%

Structure (SMILES),Potency,"activity, negative = inhibition"
Cc1ccc(N2CCN(C(=O)c3ccccc3NC(=O)c3ccccc3C(=O)O)CC2)cc1,–,inactive: -15.7%
CC(=O)c1ccc(NC(=O)C2C3C=CC(C3=C(c3ccccc3)c3ccccc3)C2C(=O)O)cc1 (stereo not drawn),"inconclusive: 31.6 µM [inhibitor, single point]",–
O=C(CCN1CCN(c2ccccc2)CC1)N/N=C/c1ccc(O)c(O)c1O,–,inactive: 7.21%
O=C(N/C(=C\c1cn(-c2ccccc2)nc1-c1ccc(Cl)cc1)C(=O)N1CCOCC1)c1ccccc1,–,inactive: 0.773%
Nc1c(C(=O)c2ccc(Cl)cc2)sc2nsc(SCCN3CCOCC3)c12,"inconclusive: 3.16 µM [inhibitor, partial curve]",–
COc1ccc(C(=O)n2nc(-c3ccccc3)nc2N)cc1OC,–,inactive: -3.65%
CCCOc1ccc(N/C=C/C(=O)C(C)(C)C)cc1,"inconclusive: 8.91 µM [inhibitor, partial curve, poor fit]",–
Cc1[nH]n(-c2ccccc2)c(=O)c1N=Nc1cccc(S(=O)(=O)N2CCOCC2)c1,"inconclusive: 11.2 µM [inhibitor, partial curve]",–
Cc1c(OCc2ccc([N+](=O)[O-])cc2)ccc2c3c(c(=O)oc12)CCC3,"inconclusive: 0.794 µM [inhibitor, full curve]",–
CSc1ccc(Cl)c(C(=O)NCCOc2cc(C(C)C)ccc2C)c1,"inconclusive: 10 µM [inhibitor, partial curve]",–
Cc1ccc(C)c(C2NC(=O)c3ccccc3N2)c1 (stereo not drawn),–,inactive: -5.26%
COc1ccc(NC(=O)CC2CCCC2)cc1S(=O)(=O)N1CCCCC1,–,inactive: 0.395%
Cc1ccc(C(=O)O)cc1Nc1nc2ccccc2n2nnnc12,"inconclusive: 12.6 µM [inhibitor, partial curve]",–
COc1ccc2nc(NC(=O)CCNC(=O)c3ccccc3Cl)sc2c1,"inconclusive: 14.1 µM [inhibitor, partial curve, poor fit]",–
Cc1ccc(Cl)cc1N1CCN(C(=O)CCC(=O)Nc2ccc3nc(N4CCC(C)CC4)cc(C)c3c2)CC1,"inconclusive: 2.82 µM [inhibitor, full curve]",–
Cc1cc2c(cc1C)/C(=N/NC(=O)c1ccccn1)CCC2,"inconclusive: 35.5 µM [inhibitor, single point]",–
COc1ccc(C2=NO[C@@H]3C(=O)N(c4c(C)cccc4C)C(=O)[C@H]23)cc1OC,–,inactive: -0.465%
FC(F)Oc1ccc(NC(=S)Nn2cnnc2)cc1,"inconclusive: 17.8 µM [inhibitor, single point]",–
COc1ccc(-c2cc3nc4n(c(=O)c3s2)CCC4)cc1,"inconclusive: 6.31 µM [inhibitor, partial curve]",–
Cc1cc(N2CCN(C(c3ccccc3)c3ccccc3)CC2)n2ncnc2n1,"inconclusive: 35.5 µM [inhibitor, single point]",–
Cc1ccc(CNC(=O)C2CCN(c3nc4ccccc4n(C)c3=O)CC2)cc1,–,inactive: -4.08%
CCOC(=O)C1CCN(C(=O)C2CCN(C3=NS(=O)(=O)C(c4ccc(C)cc4)=C3CC)CC2)CC1,"inconclusive: 3.16 µM [inhibitor, partial curve]",–
O=C(c1ccccc1)N1CCN(c2ccc([N+](=O)[O-])c(NCC3CCCO3)c2)CC1 (stereo not drawn),"inconclusive: 22.4 µM [inhibitor, partial curve]",–

Structure (SMILES),Potency,"activity, negative = inhibition"
CC(C)C(NC(=O)OCc1ccccc1)C(=O)OCC(=O)NCc1ccco1 (stereo not drawn),"inconclusive: 39.8 µM [inhibitor, partial curve]",–
CCN(CC)S(=O)(=O)c1ccc(C(=O)Nc2ccc3c(c2)OCCO3)cc1,–,inactive: -7.78%
CC(C)(C)n1[nH]c2c3c(ccc2c1=O)C(=O)c1ccccc1C3=O,"inconclusive: 4.47 µM [inhibitor, partial curve]",–
COc1ccc(C(=O)/C(C#N)=N/Nc2ccccc2[N+](=O)[O-])cc1,"inconclusive: 2.82 µM [inhibitor, full curve]",–
COc1cccc(-c2nc(CS(=O)(=O)CC(=O)NCc3ccc(C)cc3)c(C)o2)c1,"inconclusive: 22.4 µM [inhibitor, single point]",–
COc1ccc2c(c1)c(CC(=O)O)c(C)n2C(=O)c1ccc(Cl)cc1,"inconclusive: 20 µM [inhibitor, single point]",–
COc1cc(S(=O)(=O)N2CCN(c3ccc(F)cc3)CC2)ccc1Cl,–,inactive: -10.6%
CCOC(=O)c1c(-c2ccccc2)csc1NC(=O)/C(C#N)=C/c1ccc(O)c(OC)c1,"inconclusive: 14.1 µM [inhibitor, partial curve]",–
CCOCCOC(=O)C1=C(C)Nc2ccc(C)cc2S1,"inconclusive: 15.8 µM [inhibitor, partial curve]",–
CCn1c(SCC(=O)Nc2nc3ccc(C)cc3s2)nc2c(c1=O)SC(C)C2 (stereo not drawn),"inconclusive: 11.2 µM [inhibitor, partial curve]",–
N#Cc1c(NC(=O)c2cnccn2)sc2c1CCCC2,"inconclusive: 28.2 µM [inhibitor, single point]",–
CCc1nnc(NC(=O)c2cc(S(=O)(=O)N3CCN(c4ccccc4)CC3)ccc2Cl)s1,–,inactive: -15.4%
CCCc1nc([N+](=O)[O-])c(S(=O)(=O)c2ccccc2)n1CC(C)C,"inconclusive: 5.01 µM [inhibitor, single point]",–
O=C(O)C1CCCCC1C(=O)Nc1ccccc1Nc1ccccc1 (stereo not drawn),"inconclusive: 31.6 µM [inhibitor, single point]",–
CC(C)(C)c1ccc(-c2nc(C#N)c(NCc3cccnc3)o2)cc1,"inconclusive: 4.47 µM [inhibitor, partial curve]",–
CC(=O)c1ccc(NC(=O)CSCCO)cc1,"inconclusive: 17.8 µM [inhibitor, partial curve]",–
CSc1nsc(SC)c1NC(=O)N1CCCC1,–,inactive: 0.965%
COc1ccc(NC2CC(=O)N(c3cc([N+](=O)[O-])ccc3C)C2=O)cc1 (stereo not drawn),"inconclusive: 25.1 µM [inhibitor, partial curve]",–
COc1ccc(C(=O)NCC(C)(C)SCc2c(C)cc(C)cc2C)cc1,"inconclusive: 20 µM [inhibitor, single point]",–
Cc1ccc(S(=O)(=O)NCC(c2ccc(N(C)C)cc2)N2CCOCC2)cc1 (stereo not drawn),"inconclusive: 14.1 µM [inhibitor, partial curve]",–
CN(C)/C=N/c1ncc(C(=O)c2ccc(-c3ccccc3)cc2)s1,"inconclusive: 28.2 µM [inhibitor, partial curve]",–
CCC(=O)N1CCN(c2nc(-c3ccc(Cl)cc3)cs2)CC1,"inconclusive: 8.91 µM [inhibitor, partial curve]",–
